# According to article PMC6919601, “Identification of Plasmodium dipeptidyl aminopeptidase allosteric inhibitors by high throughput screening” (PLoS ONE, 2019):
# Hit rate of the full screen: of about 110,000 compounds, about 230 (0.21%) showed an effect of 50% or more. This is one part of the list.
# Molecular target: DPAP1 (Plasmodium falciparum, UniProt Q8IIJ9)
# Assay: primary screen, percent inhibition; read by cleavage of a fluorogenic dipeptide substrate; higher = more effect of the substance
# Set-up: species or system P. falciparum D10 trophozoite lysates; single well
# 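Also: 30 min substrate incubation versus DMSO and 10 µM JCP410 controls.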
# Chain of DPAP1 (Q8IIJ9 whole entry, looked up): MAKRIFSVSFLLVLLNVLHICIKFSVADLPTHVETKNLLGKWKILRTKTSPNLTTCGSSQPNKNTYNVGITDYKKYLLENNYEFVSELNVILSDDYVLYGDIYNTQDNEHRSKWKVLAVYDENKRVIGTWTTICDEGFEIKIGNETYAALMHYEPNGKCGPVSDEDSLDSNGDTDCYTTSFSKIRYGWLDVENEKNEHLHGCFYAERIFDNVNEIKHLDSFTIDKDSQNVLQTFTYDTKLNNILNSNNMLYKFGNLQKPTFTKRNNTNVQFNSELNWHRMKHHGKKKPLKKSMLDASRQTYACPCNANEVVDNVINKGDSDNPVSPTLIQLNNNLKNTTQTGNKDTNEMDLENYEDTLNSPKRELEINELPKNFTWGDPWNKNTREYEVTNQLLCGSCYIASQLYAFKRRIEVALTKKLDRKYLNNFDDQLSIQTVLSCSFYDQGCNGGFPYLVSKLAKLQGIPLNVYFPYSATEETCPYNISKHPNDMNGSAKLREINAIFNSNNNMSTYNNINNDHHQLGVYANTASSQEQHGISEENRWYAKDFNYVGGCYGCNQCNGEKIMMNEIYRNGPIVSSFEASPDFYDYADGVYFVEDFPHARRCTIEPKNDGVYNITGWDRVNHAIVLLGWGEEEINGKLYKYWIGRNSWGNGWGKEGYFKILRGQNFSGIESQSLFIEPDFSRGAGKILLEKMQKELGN
row,Compound,% Inhibition @ 10 uM [%]
1,Cc1nn(C)cc1C(=O)Nc1ccncc1,-1.24
2,O=C(O)CNS(=O)(=O)c1cccc2nsnc12,-3.16
3,CCOC(=O)c1c(C)nc(-c2ccccc2)nc1N,-1.91
4,CC1=C(C(=O)Nc2cccc(C)n2)C(c2cccc(Oc3ccccc3)c2)C2=C(O)CCCC2=N1 (centres unmarked),-2.53
5,C=CCOc1ccc(CNCc2ccccc2)cc1OC,0.13
6,COc1cccc(C2N3CCCN23)c1OC (centres unmarked),-6.67
7,Cc1nc2nc(-c3cccnc3)nn2c(O)c1C,4.18
8,CC(CNC(=O)c1ccccc1Cl)NC(=O)c1ccccc1Cl (centres unmarked),0.993
9,COc1cccc(C2C(C#N)=C(N)SC(N)=C2C#N)c1,39
10,Cc1cccc(C)c1NC(=O)Nc1ccc(Cl)cc1,1.29
11,CCCN1Cc2cccc(C(=O)NCc3ccc(C)cc3)c2C1=O,-0.499
12,O=[N+]([O-])c1ccc2[nH]c3c(c2c1)CCCC3O (centres unmarked),-2.72
13,COc1ccccc1OC(C)C(=O)N(Cc1ccc(Cl)cc1)Cc1ccco1 (centres unmarked),-0.45
14,COc1ccc(-c2nnc(SCC(=O)NC3CCCCC3)o2)cc1,-5.63
15,O=C1CC(c2c(F)cccc2Cl)C2=C(CC(c3ccc(F)cc3)CC2=O)N1 (centres unmarked),2.54
16,CN(C)c1ccc(/C=C/CN2CCCCC2)cc1,-0.292
17,COc1ccc(NC(=O)C(CCSC)N2C(=O)c3ccccc3C2=O)cc1 (centres unmarked),1.71
18,CCS(=O)(=O)c1nc(S(=O)(=O)c2ccc(Cl)cc2)c(NCCc2ccccc2)s1,-0.522
19,CN(CC(=O)NC1CCCCC1)c1nnc(N2CCCC2=O)s1,-1.01
20,COc1ccc(C2CC(C(F)(F)F)n3nc(C(=O)NC(C)(C)C)c(Cl)c3N2)cc1OC (centres unmarked),6.42
21,O=C(CN1CCCC1)Nc1c2c(nc3c1CCC3)CCC2,-4.67
22,CC(C)c1ccccc1NC(=O)CN1C(=O)c2ccccc2C1=O,-8.06
23,COc1ccc(C2=CC(c3ccccc3)c3ccccc3O2)cc1OC (centres unmarked),-13.2
24,COCCO/C(O)=C1\C(C)=NC2=C(C(=O)CC(c3ccccc3Cl)C2)C1c1ccc(C)o1 (centres unmarked),-1.17
25,N#CCNC(=O)[C@H](Cc1c(F)cccc1F)NC(=O)c1ccc(-c2ccccc2Cl)c(Cl)c1,-3.48

row,Compound,% Inhibition @ 10 uM [%]
1,CC(=O)[C@H](CCc1ccccc1)NC(=O)[C@H](CC(C)C)NC(=O)OCc1ccccc1,-4.82
2,CCCc1nnc2sc(NC(=O)COc3ccc(C)c(C)c3)nn12,1.39
3,CCN1CCc2nc(SCC(=O)Nc3ccc(OC)cc3)c(C#N)cc2C1,-8.15
4,CC1CCc2c(sc3nc(SCC(N)=O)n(-c4ccccc4)c(=O)c23)C1 (centres unmarked),-2.89
5,Cc1cccc(CCNC(=O)C2CCN(S(=O)(=O)c3ccc(-n4cnnn4)cc3)CC2)c1,-4.67
6,CCC(O)c1nc2ccccc2n1CCOc1ccc(Cl)c(C)c1 (centres unmarked),6.7
7,N#Cc1cccc(NC(=O)Cc2cccc3ccccc23)c1,-4.14
8,CCOC(=O)C1=C(C)N=c2s/c(=C\c3c[nH]c4ccccc34)c(=O)n2C1c1ccc(OC)cc1 (centres unmarked),4.97
9,COc1ccc(OC)c(CN2CCN(Cc3ccccc3Cl)CC2)c1,-8.78
10,Cc1ccc2nc3c(O)n(CC(=O)NCCCN(C)Cc4ccccc4)ncc-3c2c1,-2.34
11,N=C(Nc1ccc2ccc3cccnc3c2n1)c1ccccn1,1.43
12,CC(=O)CCS(=O)(=O)c1ccc(Br)cc1,-3.82
13,Cc1ccc(CNC(=O)c2ccc(COc3ccc(F)cc3)o2)cc1,-6.68
14,COC(=O)c1sccc1NC(=O)Nc1cn(CC(C)C)c(=O)c2ccccc12,2.57
15,Fc1ccccc1N1CCN(Cc2ccc(-c3ccccc3)cc2)CC1,4.57
16,Cn1cccc1Cc1nnc(SCC(=O)N2CCOCC2)n1-c1ccc(Cl)cc1,-3.1
17,Cc1cc(C)c2c3c(sc2n1)C(c1ccc(Cl)cc1)C(C#N)=C(N)O3 (centres unmarked),-0.305
18,CCN1CCN(CCCNC(=O)C(NC(=O)C2CCC(C)CC2)C(C)C)CC1 (centres unmarked),-5.67
19,O=C1c2cccc3cccc(c23)C(=O)N1Cc1cccnc1,-6.02
20,COc1ccc(Cl)cc1C1=N/C(=C\c2coc3ccccc3c2=O)C(=O)O1,-0.48
21,CCOC(=O)C1=C(C)N=c2s/c(=C\c3ccc(N(CC)CC)cc3)c(=O)n2C1c1ccc(C)cc1 (centres unmarked),1.72
22,CC1=C(C(=O)Nc2ccccc2C)C(c2cccnc2)n2ncnc2N1 (centres unmarked),-3.67
23,CCC(C)NC(=O)CCc1c(C)nc2c(c(C)nn2-c2ccccc2)c1C (centres unmarked),0.953
24,N#Cc1c(N)nc2c(c1-c1ccccc1Cl)CCCC2,1.26
25,NC(=O)C1CCN(C(=O)c2ccc(CSc3nc4cccnc4n3Cc3ccccc3)cc2)CC1,-0.878
